# From PubChem BioAssay (NCI)
#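 Results reflect a 48-hour exposure of cells in 96-well plates to compound at five concentrations. GI50 marks 50% less growth. TGI: concentration producing complete growth inhibition.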 Square brackets hold non-standard residues; d marks the D form. Peptide text beside a SMILES is read from it. * marks the point of attachment. AllylGly = C=CC[CH](N)C(=O)O; Boc = CC(C)(C)OC(=O)*; OtBu = CC(C)(C)O*
# Test system: NCI-H322M lung
# Experiment: NCI-60 cell line screen, 48 h
Structure (SMILES),TGI,GI50
NC(N)=NS(=O)(=O)c1ccc(NCc2c3ccccc3nc3ccccc23)cc1,> 100 µM,–
O=C(OCc1ccccc1)N1CCN(/[N+]([O-])=N/Oc2ccc([N+](=O)[O-])cc2[N+](=O)[O-])CC1,27.8 µM,14.3 µM
CCOC(=O)c1c(C)c2c(n1C)CCc1cn[nH]c1-2,> 100 µM,–
Clc1ccc(Oc2ccc(N=Cc3ccc(Cl)cc3Cl)cc2Cl)cc1,> 100 µM,–
CC(N)C(C)Cc1ccccc1 (centres undefined),> 100 µM,–
CCNCC(=O)O[C@]1(CC)C(=O)OCc2c1cc1n(c2=O)Cc2cc3ccccc3nc2-1,11 µM,–
CC(C)CCOc1ccc(-c2n[nH]c(C(F)(F)F)c2-c2cncc(C#N)c2)c(O)c1,13.2 µM,2.7 µM
O=S(O)CCCCCSSCCCCSSCCCCCS(=O)O,> 100 µM,–
C=CCC(NC(=O)C(CC(=O)OC(C)(C)C)NC(=O)OC(C)(C)C)C(=O)OC (centres undefined) (Boc-Asp(OtBu)-[AllylGly]-OMe; configuration not given here),> 100 µM,–
CCOC(=O)C(=O)Nc1ccc(C)cc1C,> 100 µM,–
Cc1cc2c(=O)n(-c3ccc(F)cc3)c(C)nc2c(C(=O)O)c1C,> 100 µM,–
CCSCC(N)C(=O)O (centres undefined),> 100 µM,–
COc1ccc(-c2ccc(/C=N/n3c(COc4ccccc4Cl)nn(CN4CCN(C)CC4)c3=S)o2)c([N+](=O)[O-])c1,58.7 µM,23.5 µM
NC(=NCCCOc1ccc(Cl)cc1)Nc1ccc(Cl)cc1,13.1 µM,3.36 µM
COc1ccc(C(O)/C(=N\NC(N)=S)c2nc3ccc([N+](=O)[O-])cc3[nH]c2=O)cc1OC (centres undefined),> 100 µM,–
COc1cc(CCCOC(=O)/C=C/c2ccc(O)c(O)c2)cc(O)c1O,> 100 µM,–
COC1(OC)CC2C=C(S(=O)(=O)c3ccccc3)C1N(Cc1ccccc1)C2=O (centres undefined),> 100 µM,–

Structure (SMILES),TGI,GI50
COc1ccc(/C=C2\CCCCC2=O)cc1,> 100 µM,–
O=C1C(/C=C/c2ccc(Cl)cc2)=NNC2N1N=C1NC(=O)C3(NN12)c1ccccc1-c1ccccc13 (centres undefined),> 100 µM,–
Cc1cc2cc3cc(C)c(N(C)C)cc3nc2cc1N(C)C,> 100 µM,7.01 µM
O=[N+]([O-])c1ccc(-c2nc(-c3ccccc3)c(-c3ccccc3)n2-c2ccccc2)cc1,16.1 µM,3.54 µM
Brc1ccc(-c2nnc(-c3nn(-c4ccccc4)c4nc5ccccc5nc34)o2)cc1,> 100 µM,–
CN(C)c1ccc(/C=C(\C#N)C(N)=C(C#N)C#N)cc1,> 100 µM,–
CN(C)c1ccc(N=Cc2c([O-])ccc3ccccc23)cc1.[C-]#[O+].[C-]#[O+].[Ir],89.1 µM,27.2 µM
CCC[CH2][Sn]([CH2]CCC)([O]C(=O)c1cc(F)cc(F)c1)[O]C(=O)c1cc(F)cc(F)c1,3.2 µM,1.74 µM
CC(C)C1OC(=O)C=C1Sc1ccccc1 (centres undefined),> 100 µM,–
COCC1CCCN1c1ccc(/C=C(/C#N)C(N)=S)cc1 (centres undefined),> 100 µM,> 100 µM
COc1cc(C2c3cc4c(cc3OC(Nc3ccc(C(=O)O)cc3)C2C)OCO4)cc(OC)c1OC (centres undefined),> 100 µM,–
CC1(C)C(=O)C(C)(C)C12SSC1(S2)C(C)(C)C(=O)C1(C)C,> 100 µM,–
C[C@H](Nc1c(O)c2c(c(O)c1Cl)C(=O)C=CC2=O)C(=O)Nc1ccc([N+](=O)[O-])cc1,5.45 µM,–
C=C1C[C@](OC)([C@H](O)C(=O)N[C@@H](OC)[C@@H]2C[C@@H](O)C(C)(C)[C@@H](C[C@@H](COC)OC)O2)O[C@H](C)[C@@H]1C,0.00406 µM,0.00141 µM
COc1cc(C(=O)/C=C/c2cc(C(=O)c3cc(OC)c(OC)c(OC)c3)ccc2OC)ccc1N,6.32 µM,1.8 µM
COc1ccc2nc3ccc(OC)cc3c(S(=O)(=O)Cc3ccc([N+](=O)[O-])cc3)c2c1,> 100 µM,–
